Test results: the supplement of paper PMC9151546
Most values come without repeats; read them as rough.

Experiments:
CHO-K1 [1] = assay: relative survival (nuclei to bead ratio vs DMSO control) (% of vehicle control); higher = more surviving cells
Method: (§1)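 Flow-cytometric in vitro micronucleus assay (Litron MicroFlow) in CHO-K1 cells in 96-well plates, 19 concentrations (4.5-200 µM, n=1 per concentration). Without S9, cells were exposed for 24 h and sampled at 48 h. With Aroclor 1254-induced rat liver S9, cells were exposed for 3-4 h and sampled at 27-28 h. Read-outs are %MN and %hypodiploid nuclei relative to nucleated events, and relative survival as the nuclei-to-bead ratio versus the 1% DMSO vehicle control (x100).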

CHO-K1 [2] = assay: micronucleus frequency (% of nucleated events); higher = more micronuclei (genotoxic)
CHO-K1 [3] = assay: hypodiploid nuclei frequency (% of nucleated events); higher = more hypodiploid events (aneugenic)
Method: as §1
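Wherever hypodiploid nuclei frequency (% of nucleated events) is given: hypodiploid nuclei gated on a flow cytometer with 488 nm excitation after SYTOX Green staining, cultures at 37 °C, positive controls vinblastine without S9 and cyclophosphamide with S9.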
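Wherever micronucleus frequency (% of nucleated events) is given: cells lysed with nuclei stained by SYTOX Green, then micronucleus-gated events counted against nucleated events by flow cytometry with 488 nm excitation.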
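Wherever relative survival (nuclei to bead ratio vs DMSO control) is given: Lysed-cell nuclei stained with SYTOX Green and counted against counting beads by flow cytometry at 488 nm excitation, with vinblastine (no S9) and cyclophosphamide (plus S9) as positive controls.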

CCOC(N)=O [Urethane]
Settings	hypodiploid nuclei frequency, CHO-K1 [3] [%]	micronucleus frequency, CHO-K1 [2] [%]	relative survival, CHO-K1 [1]
concentration: 4.53 (µM), S9 metabolic activation: with S9, exposure time: 3-4 hours	0.22	1.64	89.4
concentration: 4.53 (µM), S9 metabolic activation: without S9, exposure time: 24 hours	4.72	1.22	98.5
concentration: 5.66 (µM), S9 metabolic activation: with S9, exposure time: 3-4 hours	0.2	1.66	93.6
concentration: 5.66 (µM), S9 metabolic activation: without S9, exposure time: 24 hours	1.84	1.2	95.2
concentration: 7.07 (µM), S9 metabolic activation: with S9, exposure time: 3-4 hours	0.4	1.54	104
concentration: 7.07 (µM), S9 metabolic activation: without S9, exposure time: 24 hours	2.6	1.48	93.6
concentration: 8.84 (µM), S9 metabolic activation: with S9, exposure time: 3-4 hours	0.3	1.48	104
concentration: 8.84 (µM), S9 metabolic activation: without S9, exposure time: 24 hours	0.7	1.14	111
concentration: 11.1 (µM), S9 metabolic activation: with S9, exposure time: 3-4 hours	0.2	1.9	105
concentration: 11.1 (µM), S9 metabolic activation: without S9, exposure time: 24 hours	0.68	1.48	113
concentration: 13.8 (µM), S9 metabolic activation: with S9, exposure time: 3-4 hours	0.24	1.84	110
concentration: 13.8 (µM), S9 metabolic activation: without S9, exposure time: 24 hours	0.62	1.12	107
concentration: 17.3 (µM), S9 metabolic activation: with S9, exposure time: 3-4 hours	0.3	1.78	107
concentration: 17.3 (µM), S9 metabolic activation: without S9, exposure time: 24 hours	0.72	0.94	101
concentration: 21.6 (µM), S9 metabolic activation: with S9, exposure time: 3-4 hours	0.1	0.8	107
concentration: 21.6 (µM), S9 metabolic activation: without S9, exposure time: 24 hours	0.62	1.3	94.1
concentration: 27 (µM), S9 metabolic activation: with S9, exposure time: 3-4 hours	0.12	0.92	88.7
concentration: 27 (µM), S9 metabolic activation: without S9, exposure time: 24 hours	0.76	1.28	95.7
concentration: 33.7 (µM), S9 metabolic activation: with S9, exposure time: 3-4 hours	0.18	1.14	84.1
concentration: 33.7 (µM), S9 metabolic activation: without S9, exposure time: 24 hours	0.56	1.1	86.4
concentration: 42.2 (µM), S9 metabolic activation: with S9, exposure time: 3-4 hours	0.22	1.28	84.9
concentration: 42.2 (µM), S9 metabolic activation: without S9, exposure time: 24 hours	0.56	1.22	94.7
concentration: 52.7 (µM), S9 metabolic activation: with S9, exposure time: 3-4 hours	0.26	1.06	91.8
concentration: 52.7 (µM), S9 metabolic activation: without S9, exposure time: 24 hours	0.52	0.96	72.4
concentration: 65.9 (µM), S9 metabolic activation: with S9, exposure time: 3-4 hours	0.16	1	81.8
concentration: 65.9 (µM), S9 metabolic activation: without S9, exposure time: 24 hours	0.74	1.2	84.7
concentration: 82.3 (µM), S9 metabolic activation: with S9, exposure time: 3-4 hours	0.22	1.18	84.1
concentration: 82.3 (µM), S9 metabolic activation: without S9, exposure time: 24 hours	0.44	1.26	95.2
concentration: 103 (µM), S9 metabolic activation: with S9, exposure time: 3-4 hours	0.14	1.14	81.8
concentration: 103 (µM), S9 metabolic activation: without S9, exposure time: 24 hours	0.5	1.46	111
concentration: 129 (µM), S9 metabolic activation: with S9, exposure time: 3-4 hours	0.18	0.94	98.8
concentration: 129 (µM), S9 metabolic activation: without S9, exposure time: 24 hours	0.8	1.52	98.5
concentration: 161 (µM), S9 metabolic activation: with S9, exposure time: 3-4 hours	0.2	1.02	79.5
concentration: 161 (µM), S9 metabolic activation: without S9, exposure time: 24 hours	0.92	1.52	93.6
concentration: 201 (µM), S9 metabolic activation: with S9, exposure time: 3-4 hours	0.18	1.16	86.2
concentration: 201 (µM), S9 metabolic activation: without S9, exposure time: 24 hours	0.82	1.8	89.2

Cc1ccc(O)cc1 [p-Cresol]
Settings	hypodiploid nuclei frequency, CHO-K1 [3] [%]	micronucleus frequency, CHO-K1 [2] [%]	relative survival, CHO-K1 [1]
concentration: 4.48 (µM), S9 metabolic activation: with S9, exposure time: 3-4 hours	0.32	1.52	102
concentration: 4.48 (µM), S9 metabolic activation: without S9, exposure time: 24 hours	0.94	1.78	114
concentration: 5.6 (µM), S9 metabolic activation: with S9, exposure time: 3-4 hours	0.24	0.98	101
concentration: 5.6 (µM), S9 metabolic activation: without S9, exposure time: 24 hours	0.82	2.26	119
concentration: 7 (µM), S9 metabolic activation: with S9, exposure time: 3-4 hours	0.18	1.38	128
concentration: 7 (µM), S9 metabolic activation: without S9, exposure time: 24 hours	0.66	1.64	108
concentration: 8.75 (µM), S9 metabolic activation: with S9, exposure time: 3-4 hours	0.24	1.44	129
concentration: 8.75 (µM), S9 metabolic activation: without S9, exposure time: 24 hours	0.6	1.48	88.4
concentration: 10.9 (µM), S9 metabolic activation: with S9, exposure time: 3-4 hours	0.28	1.3	119
concentration: 10.9 (µM), S9 metabolic activation: without S9, exposure time: 24 hours	0.82	1.88	118
concentration: 13.7 (µM), S9 metabolic activation: with S9, exposure time: 3-4 hours	0.22	1.3	95
concentration: 13.7 (µM), S9 metabolic activation: without S9, exposure time: 24 hours	0.88	2.14	143
concentration: 17.1 (µM), S9 metabolic activation: with S9, exposure time: 3-4 hours	0.28	1.18	108
concentration: 17.1 (µM), S9 metabolic activation: without S9, exposure time: 24 hours	0.68	1.68	123
concentration: 21.4 (µM), S9 metabolic activation: with S9, exposure time: 3-4 hours	0.3	1.34	118
concentration: 21.4 (µM), S9 metabolic activation: without S9, exposure time: 24 hours	0.6	2.26	120
concentration: 26.7 (µM), S9 metabolic activation: with S9, exposure time: 3-4 hours	0.38	1.98	99.6
concentration: 26.7 (µM), S9 metabolic activation: without S9, exposure time: 24 hours	1	1.9	116
concentration: 33.4 (µM), S9 metabolic activation: with S9, exposure time: 3-4 hours	0.18	0.96	122
concentration: 33.4 (µM), S9 metabolic activation: without S9, exposure time: 24 hours	0.64	2.16	119
concentration: 41.7 (µM), S9 metabolic activation: with S9, exposure time: 3-4 hours	0.14	1.42	103
concentration: 41.7 (µM), S9 metabolic activation: without S9, exposure time: 24 hours	0.94	2.2	106
concentration: 52.2 (µM), S9 metabolic activation: with S9, exposure time: 3-4 hours	0.14	1.18	81.1
concentration: 52.2 (µM), S9 metabolic activation: without S9, exposure time: 24 hours	1.14	2.38	86.2
concentration: 65.2 (µM), S9 metabolic activation: with S9, exposure time: 3-4 hours	0.28	1.7	94.8
concentration: 65.2 (µM), S9 metabolic activation: without S9, exposure time: 24 hours	0.78	1.92	82.5
concentration: 81.5 (µM), S9 metabolic activation: with S9, exposure time: 3-4 hours	0.14	1.56	108
concentration: 81.5 (µM), S9 metabolic activation: without S9, exposure time: 24 hours	1.14	2.5	83.8
concentration: 102 (µM), S9 metabolic activation: with S9, exposure time: 3-4 hours	0.3	1.12	105
concentration: 102 (µM), S9 metabolic activation: without S9, exposure time: 24 hours	1.64	2.98	89.2
concentration: 127 (µM), S9 metabolic activation: with S9, exposure time: 3-4 hours	0.24	1.28	70.7
concentration: 127 (µM), S9 metabolic activation: without S9, exposure time: 24 hours	1.44	3.2	115
concentration: 159 (µM), S9 metabolic activation: with S9, exposure time: 3-4 hours	0.28	1.64	81
concentration: 159 (µM), S9 metabolic activation: without S9, exposure time: 24 hours	1.78	4.04	81.8
concentration: 199 (µM), S9 metabolic activation: with S9, exposure time: 3-4 hours	0.28	2.18	68.6
concentration: 199 (µM), S9 metabolic activation: without S9, exposure time: 24 hours	1.9	5.42	76.6
